{"source": "the supplement of paper PMC9588766", "note": "Where a name gives a salt, the structure may show the parent alone. ± gives the standard deviation of the averaged measurements. Over roughly 2,000 compounds, “cell viability relative to DMSO control (compound alone)” has its median near 0.98; the lowest 2% begin near 0.23. The list shows a part of the results."}
{"tested_on": "PDC-DUC18828", "assay": "cell viability relative to DMSO control (compound alone) (fraction); PDC-DUC18828 is a patient-derived cholangiocarcinoma cell line; higher = less growth inhibition", "settings": "1 µM; 72 h", "method": "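Selleck Bioactive library screen in the patient-derived FGFR2-G3BP2 fusion-positive ICC cell line PDC-DUC18828 (500 cells/well). Each compound was tested at 1 uM alone, in triplicate, for 72 h. Viability was read by CellTiter-Glo and normalised to plate DMSO controls.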"}
{"smiles": "CN(C)CCN1C(=O)c2cccc3cc(N)cc(c23)C1=O", "note": "[Amonafide]", "cell viability": "0.991 ± 0.038"}
{"smiles": "CCOc1ccc(Cc2cc([C@@H]3O[C@H](CO)[C@@H](O)[C@H](O)[C@H]3O)ccc2Cl)cc1", "note": "[Dapagliflozin]", "cell viability": "1.08 ± 0.041"}
{"smiles": "O[C@@H]1CO[C@H]2[C@@H]1OC[C@@H]2O", "note": "[Isosorbide]", "cell viability": "1.06 ± 0.015"}
{"smiles": "O=c1cc(CN2CCOCC2)occ1OCCCCCSc1ccnc2cc(C(F)(F)F)ccc12", "cell viability": "0.89 ± 0.048"}
{"smiles": "Cc1ccc(O)c([C@H](CCN(C(C)C)C(C)C)c2ccccc2)c1", "note": "[Tolterodine tartrate]", "cell viability": "0.983 ± 0.03"}
{"smiles": "Cc1cc(C)cc(NC(=O)Cc2ccc(OC(C)(C)C(=O)O)cc2)c1", "note": "[Efaproxiral Sodium]", "cell viability": "1.07 ± 0.092"}
{"smiles": "CCCCOc1ccc(CC(=O)NO)cc1", "note": "[Bufexamac]", "cell viability": "0.869 ± 0.014"}
{"smiles": "CCN1/C(=C/C(C)=O)Sc2ccc(OC)cc21", "cell viability": "0.964 ± 0.029"}
{"smiles": "CCCCC(C=O)NC(=O)C(CC(C)C)NC(=O)C(CC(C)C)NC(C)=O", "note": "(stereo not given)", "cell viability": "0.486 ± 0.095"}
{"smiles": "CCCCCCCCCCCCCCCCO", "note": "[1-Hexadecanol]", "cell viability": "1.02 ± 0.015"}
{"smiles": "O=S(=O)(N=Cc1c(O)ccc2ccccc12)c1cccs1", "cell viability": "0.985 ± 0.036"}
{"smiles": "CCS(=O)(=O)N1CCC([C@@H](C)n2c(C)c(C(=O)NCc3c(OC)cc(C)[nH]c3=O)c3ccccc32)CC1", "cell viability": "0.974 ± 0.026"}
{"smiles": "Fc1ccc(CNc2ncnc3ccc(F)cc23)cc1", "note": "[Spautin-1]", "cell viability": "0.898 ± 0.058"}
{"smiles": "Cc1c(OCC(F)(F)F)ccnc1C[S+]([O-])c1nc2ccccc2[nH]1", "note": "(stereo not given) [Lansoprazole]", "cell viability": "0.923 ± 0.04"}
{"smiles": "O=C1CCc2c(ccc3ccccc23)O1", "note": "[Splitomicin]", "cell viability": "0.994 ± 0.026"}
{"smiles": "CC[C@@H]1C(=O)N(C)c2cnc(Nc3ccc(C(=O)NC4CCN(C)CC4)cc3OC)nc2N1C1CCCC1", "cell viability": "0.389 ± 0.017"}
{"smiles": "COc1ccc2cc1Oc1ccc(cc1)C[C@H]1c3c(cc4c(c3Oc3cc5c(cc3OC)CCN(C)[C@@H]5C2)OCO4)CCN1C", "note": "[Cepharanthine]", "cell viability": "0.871 ± 0.041"}
{"smiles": "NC1=N[C@@]2(c3cc(NC(=O)c4ccc(F)cn4)ccc3F)COC[C@H]2CS1", "cell viability": "1.03 ± 0.018"}
{"smiles": "OCC(O)CN1CCN(c2ccccc2)CC1", "note": "(stereo not given) [Dropropizine]", "cell viability": "0.947 ± 0.057"}
{"smiles": "COc1ccccc1N1CCN(CCN2C(=O)CC3(CCCC3)CC2=O)CC1", "cell viability": "1.03 ± 0.029"}
{"smiles": "CN(C)CCC(c1ccc(Cl)cc1)c1ccccn1", "note": "(stereo not given) [Chlorpheniramine Maleate]", "cell viability": "0.938 ± 0.015"}
{"smiles": "COC1=CC(=O)C[C@@H](C)[C@]12Oc1c(Cl)c(OC)cc(OC)c1C2=O", "note": "[Griseofulvin]", "cell viability": "1.07 ± 0.073"}
{"smiles": "CCC(=O)NCC[C@@H]1CCc2ccc3c(c21)CCO3", "note": "[Ramelteon]", "cell viability": "1.015 ± 0.0099"}
{"smiles": "CC(C)(C)c1cc(/C=C(\\C#N)C(N)=S)cc(C(C)(C)C)c1O", "note": "[Tyrphostin AG 879]", "cell viability": "0.906 ± 0.025"}
{"smiles": "COc1ccc(-c2coc3cc(O)cc(O)c3c2=O)cc1", "note": "[Biochanin A]", "cell viability": "1.01 ± 0.038"}
